In the supplement of paper PMC8728848:
The other results are listed elsewhere or left out.

How the values were obtained:
Test in all cases: glycan array binding signal (z-score within array); higher = stronger binding
Settings in all cases: glycan notation: IUPAC condensed, linker removed
[1] = biological target: Neu5Ac(a2-3)Gal(b1-4)GlcNAc(b1-6)GalNAc
Outline: (§1)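 From the Consortium for Functional Glycomics database, 3228 arrays were curated, keeping only those whose protein sequence was available. Binding is given as a within-array Z-score averaged across arrays sharing a protein sequence and across linkers. Negative Z-scores can be read as non-binding.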

[2] = biological target: Neu5Ac(a2-3)Gal(b1-4)GlcNAc(b1-6)[Gal(b1-3)]GalNAc
Outline: as §1

[3] = biological target: Neu5Ac(a2-3)Gal(b1-4)GlcNAc(b1-6)[Neu5Ac(a2-3)Gal(b1-3)]GalNAc
Outline: as §1

[4] = biological target: Neu5Ac(a2-3)Gal(b1-4)GlcNAc6S
Outline: as §1

[5] = biological target: Neu5Ac(a2-3)Gal(b1-4)[Fuc(a1-3)]GlcNAc
Outline: as §1

[6] = biological target: Neu5Ac(a2-3)Gal(b1-4)[Fuc(a1-3)]GlcNAc(b1-2)Man
Outline: as §1

[7] = biological target: Neu5Ac(a2-3)Gal(b1-4)[Fuc(a1-3)]GlcNAc(b1-3)Gal
Outline: as §1

[8] = biological target: Neu5Ac(a2-3)Gal(b1-4)[Fuc(a1-3)]GlcNAc(b1-3)Gal(b1-4)GlcNAc
Outline: as §1

[9] = biological target: Neu5Ac(a2-3)Gal(b1-4)[Fuc(a1-3)]GlcNAc(b1-3)Gal(b1-4)[Fuc(a1-3)]GlcNAc(b1-3)Gal(b1-4)[Fuc(a1-3)]GlcNAc
Outline: as §1

[10] = biological target: Neu5Ac(a2-3)Gal(b1-4)[Fuc(a1-3)]GlcNAc(b1-3)GalNAc
Outline: as §1

[11] = biological target: Neu5Ac(a2-3)Gal(b1-4)[Fuc(a1-3)]GlcNAc(b1-6)[Gal(b1-3)]GalNAc
Outline: as §1

[12] = biological target: Neu5Ac(a2-3)Gal(b1-4)[Fuc(a1-3)]GlcNAc(b1-6)[Neu5Ac(a2-3)Gal(b1-3)]GalNAc
Outline: as §1

[13] = biological target: Neu5Ac(a2-3)Gal(b1-4)[Fuc(a1-3)]GlcNAc6S
Outline: as §1

[14] = biological target: Neu5Ac(a2-3)Gal6S(b1-4)GlcNAc
Outline: as §1

[15] = biological target: Neu5Ac(a2-3)Gal6S(b1-4)[Fuc(a1-3)]GlcNAc
Outline: as §1

Neu5Ac(a2-3)GalNAc = biological target: Neu5Ac(a2-3)GalNAc
Outline: as §1

[16] = biological target: Neu5Ac(a2-3)GalNAc(b1-4)GlcNAc
Outline: as §1

[17] = biological target: Neu5Ac(a2-3)[GalNAc(b1-4)]Gal(b1-4)Glc
Outline: as §1

[18] = biological target: Neu5Ac(a2-3)[GalNAc(b1-4)]Gal(b1-4)GlcNAc
Outline: as §1

[19] = biological target: Neu5Ac(a2-3)[GalNAc(b1-4)]Gal(b1-4)GlcNAc(b1-3)GalNAc
Outline: as §1

[20] = biological target: Neu5Ac(a2-3)[Neu5Ac(a2-6)]GalNAc
Outline: as §1

Neu5Ac(a2-6)Gal = biological target: Neu5Ac(a2-6)Gal
Outline: as §1

[21] = biological target: Neu5Ac(a2-6)Gal(b1-3)GlcNAc(b1-3)[Gal(b1-4)GlcNAc(b1-6)]Gal(b1-4)Glc
Outline: as §1

Neu5Ac(a2-6)Gal(b1-4)Glc = biological target: Neu5Ac(a2-6)Gal(b1-4)Glc
Outline: as §1

[22] = biological target: Neu5Ac(a2-6)Gal(b1-4)GlcNAc
Outline: as §1

[23] = biological target: Neu5Ac(a2-6)Gal(b1-4)GlcNAc(b1-2)Man
Outline: as §1

[24] = biological target: Neu5Ac(a2-6)Gal(b1-4)GlcNAc(b1-2)Man(a1-3)Man(b1-4)GlcNAc(b1-4)GlcNAc
Outline: as §1

[25] = biological target: Neu5Ac(a2-6)Gal(b1-4)GlcNAc(b1-2)Man(a1-3)[Gal(b1-4)GlcNAc(b1-2)Man(a1-6)]Man(b1-4)GlcNAc(b1-4)GlcNAc
Outline: as §1

[26] = biological target: Neu5Ac(a2-6)Gal(b1-4)GlcNAc(b1-2)Man(a1-3)[GlcNAc(b1-2)Man(a1-6)]Man(b1-4)GlcNAc(b1-4)GlcNAc
Outline: as §1

[27] = biological target: Neu5Ac(a2-6)Gal(b1-4)GlcNAc(b1-2)Man(a1-3)[GlcNAc(b1-4)][Neu5Ac(a2-6)Gal(b1-4)GlcNAc(b1-2)Man(a1-6)]Man(b1-4)GlcNAc(b1-4)GlcNAc
Outline: as §1

[28] = biological target: Neu5Ac(a2-6)Gal(b1-4)GlcNAc(b1-2)Man(a1-3)[Man(a1-6)]Man(b1-4)GlcNAc(b1-4)GlcNAc
Outline: as §1

B1: PX14343H-pdi-506-26-506 (Parabacteroides distasonis) (protein)
chain: QPTGTMTTDSKLTSKESALALTNSAYLKNTVFNKMTPGWGCNTILLLEYMTGKATSENSQSNYKDFQDLLVSDRSLYIEDWWQDCYAGIANCNLALQKLGEFENLDASLVNGYMAEVKFMRALYYFYLVRIFGDVPKITTVQSELGELQVSRAPVKEIYDEIIIPDLLEAEQSDLAFSDHTGRVSMGAVKALLADVYLTYAGYPLQGGKSYYAESAKRSLEVIKSNEYTLFTDYESLRLPSQNNKGEFIYQVQFSLNKRHNESVRIFLPSRSGISAYDLEYGSLIPTKEFVESFEKGDKRTEEKQYFFTNYKGHPSKFSPGAAELEFMDLNGYYIYKFFDQVAVDNTAKSDLNWSVYRYTDVLLMYAEAQVNADGTPNQQSIDIVNQIRGRAGLAPFKQTNASAFLEEVWDQRYFDLCYENKMWFDMLRTRKIRDDKSGEYVDFIGYKTNWGKVYTETQLLFPIPLSERQANPNLTQNQGY
glycan array binding signal (z-score) [1]: -0.444
glycan array binding signal (z-score) [2]: -0.127
glycan array binding signal (z-score) [3]: -0.369
glycan array binding signal (z-score) [4]: -0.533
glycan array binding signal (z-score) [5]: -0.352
glycan array binding signal (z-score) [6]: -0.451
glycan array binding signal (z-score) [7]: -0.265
glycan array binding signal (z-score) [8]: -0.241
glycan array binding signal (z-score) [9]: -0.321
glycan array binding signal (z-score) [10]: -0.027
glycan array binding signal (z-score) [11]: 1.67
glycan array binding signal (z-score) [12]: 0.205
glycan array binding signal (z-score) [13]: -0.419
glycan array binding signal (z-score) [14]: -0.371
glycan array binding signal (z-score) [15]: -0.416
glycan array binding signal (z-score) (Neu5Ac(a2-3)GalNAc): -0.48
glycan array binding signal (z-score) [16]: -0.527
glycan array binding signal (z-score) [17]: 2.88
glycan array binding signal (z-score) [18]: -0.037
glycan array binding signal (z-score) [19]: 0.602
glycan array binding signal (z-score) [20]: -0.483
glycan array binding signal (z-score) (Neu5Ac(a2-6)Gal): -0.29
glycan array binding signal (z-score) [21]: -0.538
glycan array binding signal (z-score) (Neu5Ac(a2-6)Gal(b1-4)Glc): -0.341
glycan array binding signal (z-score) [22]: -0.517
glycan array binding signal (z-score) [23]: -0.422
glycan array binding signal (z-score) [24]: -0.061
glycan array binding signal (z-score) [25]: 2.9
glycan array binding signal (z-score) [26]: 0.321
glycan array binding signal (z-score) [27]: 0.453
glycan array binding signal (z-score) [28]: -0.24
